PMC5645412, “AUNIP/C1orf135 directs DNA double-strand breaks towards the homologous recombination repair pathway” (Nature Communications, 2017)
Results are given in words; binding and its absence hold for the method and conditions named. Binding seen in cells or lysates may run through a third protein. Some results given as binding are weak or reduced against the parent protein; the word gives no strength. For some of these results: Sequences can lack the tags named with a protein.

Protein sequences, listed by entry. Tags and fused reporters are not part of them.
UniProt O60934: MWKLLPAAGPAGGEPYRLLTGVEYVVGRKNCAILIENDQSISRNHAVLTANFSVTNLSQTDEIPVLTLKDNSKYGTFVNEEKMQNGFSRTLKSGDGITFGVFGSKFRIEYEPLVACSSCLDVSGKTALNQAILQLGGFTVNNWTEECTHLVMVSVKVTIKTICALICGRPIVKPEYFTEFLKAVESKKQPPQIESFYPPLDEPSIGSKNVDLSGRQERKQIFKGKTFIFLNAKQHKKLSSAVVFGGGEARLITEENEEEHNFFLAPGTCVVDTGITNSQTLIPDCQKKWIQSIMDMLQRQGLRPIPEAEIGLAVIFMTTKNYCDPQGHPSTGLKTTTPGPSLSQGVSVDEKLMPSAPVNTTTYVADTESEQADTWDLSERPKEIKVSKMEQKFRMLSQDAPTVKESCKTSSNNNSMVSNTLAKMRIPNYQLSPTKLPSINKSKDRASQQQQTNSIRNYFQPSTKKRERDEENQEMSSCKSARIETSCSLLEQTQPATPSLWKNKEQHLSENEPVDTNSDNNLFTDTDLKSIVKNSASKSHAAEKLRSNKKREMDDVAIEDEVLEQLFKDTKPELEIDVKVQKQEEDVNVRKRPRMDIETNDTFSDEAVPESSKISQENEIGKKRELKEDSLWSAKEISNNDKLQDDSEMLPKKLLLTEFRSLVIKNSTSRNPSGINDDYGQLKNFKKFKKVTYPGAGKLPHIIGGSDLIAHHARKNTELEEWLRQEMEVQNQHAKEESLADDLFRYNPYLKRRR
UniProt Q92878: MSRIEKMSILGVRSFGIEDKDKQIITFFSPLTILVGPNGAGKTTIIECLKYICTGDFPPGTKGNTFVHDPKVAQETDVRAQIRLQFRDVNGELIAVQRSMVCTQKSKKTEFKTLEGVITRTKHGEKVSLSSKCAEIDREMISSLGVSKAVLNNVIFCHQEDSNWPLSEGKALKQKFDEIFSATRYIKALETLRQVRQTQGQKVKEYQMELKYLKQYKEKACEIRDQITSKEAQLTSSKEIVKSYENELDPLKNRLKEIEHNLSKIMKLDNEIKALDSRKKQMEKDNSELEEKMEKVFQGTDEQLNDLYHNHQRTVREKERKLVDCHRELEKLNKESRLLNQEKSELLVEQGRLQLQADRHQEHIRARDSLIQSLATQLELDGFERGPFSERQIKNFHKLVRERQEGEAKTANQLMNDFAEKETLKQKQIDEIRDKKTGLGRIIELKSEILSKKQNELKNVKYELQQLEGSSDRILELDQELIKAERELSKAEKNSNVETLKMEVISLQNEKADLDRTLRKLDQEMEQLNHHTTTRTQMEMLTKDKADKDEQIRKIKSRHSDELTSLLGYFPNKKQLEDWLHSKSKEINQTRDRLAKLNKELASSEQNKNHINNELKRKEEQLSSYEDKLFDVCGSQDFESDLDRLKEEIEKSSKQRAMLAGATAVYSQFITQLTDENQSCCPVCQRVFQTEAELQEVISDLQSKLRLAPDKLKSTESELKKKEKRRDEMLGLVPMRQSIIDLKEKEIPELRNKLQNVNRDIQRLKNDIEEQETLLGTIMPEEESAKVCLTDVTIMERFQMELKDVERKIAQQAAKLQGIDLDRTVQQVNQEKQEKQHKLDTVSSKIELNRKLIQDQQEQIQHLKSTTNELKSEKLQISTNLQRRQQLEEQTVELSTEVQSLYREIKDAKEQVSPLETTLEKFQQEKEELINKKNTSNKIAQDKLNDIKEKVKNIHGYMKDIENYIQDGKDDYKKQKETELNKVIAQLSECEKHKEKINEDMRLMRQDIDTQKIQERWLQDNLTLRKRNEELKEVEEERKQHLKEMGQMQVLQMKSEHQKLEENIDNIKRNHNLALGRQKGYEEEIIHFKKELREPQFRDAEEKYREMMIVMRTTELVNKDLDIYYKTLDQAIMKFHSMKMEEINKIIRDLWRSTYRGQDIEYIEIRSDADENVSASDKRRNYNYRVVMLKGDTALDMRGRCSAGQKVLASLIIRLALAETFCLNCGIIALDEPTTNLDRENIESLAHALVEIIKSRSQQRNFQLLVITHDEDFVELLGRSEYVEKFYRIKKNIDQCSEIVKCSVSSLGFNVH

Experiments:
SFB-tagged AUNIP (human) [1] = molecular target: T1, SFB-tagged AUNIP (human) (UniProt Q9H7T9); assay: co-IP; HEK293T cells transiently transfected with SFB-tagged AUNIP (wild type or mutant) and Myc-tagged partners; NETN lysates on S-protein beads, 4 h at 4 °C; immunoblot
T1 sequence: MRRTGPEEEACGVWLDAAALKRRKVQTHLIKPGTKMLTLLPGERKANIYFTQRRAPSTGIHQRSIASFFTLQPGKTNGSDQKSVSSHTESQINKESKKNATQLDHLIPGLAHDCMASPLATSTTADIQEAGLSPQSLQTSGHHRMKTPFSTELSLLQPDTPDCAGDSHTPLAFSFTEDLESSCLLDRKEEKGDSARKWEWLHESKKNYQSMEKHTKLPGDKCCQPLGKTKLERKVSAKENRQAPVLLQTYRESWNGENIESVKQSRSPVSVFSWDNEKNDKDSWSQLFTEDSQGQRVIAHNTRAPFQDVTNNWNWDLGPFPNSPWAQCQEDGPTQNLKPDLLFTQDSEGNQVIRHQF

SFB-tagged AUNIP (human) [2] = molecular target: T1, SFB-tagged AUNIP (human); assay: co-IP; HEK293T cells co-transfected with SFB-AUNIP and one Myc-tagged protein, lysed with NETN buffer; lysates incubated with S protein beads; western blot with anti-Myc and anti-Flag
[3] = molecular target: T2, endogenous AUNIP (human (endogenous in HeLa)) (UniProt Q9H7T9); assay: co-IP; endogenous proteins; HeLa cell lysates treated with Benzonase, with or without CPT treatment of the cells, precipitated with anti-AUNIP or anti-CtIP antibodies; immunoblot
T2 sequence: T1 sequence

Myc-tagged NBS1 (from UniProt O60934 1-754)
binding (SFB-tagged AUNIP (human) [1]): binds | binding (SFB-tagged AUNIP (human) [2]): binds

Myc-tagged RAD50 (from UniProt Q92878 1-1312)
binding (SFB-tagged AUNIP (human) [1]): binds | binding (SFB-tagged AUNIP (human) [2]): binds

NBS1 (endogenous, HeLa) (from UniProt O60934 1-754)
binding [3]: binds

RAD50 (endogenous, HeLa) (from UniProt Q92878 1-1312)
binding [3]: binds

B1: Morc3 (protein, UniProt Q14149 1-939)
chain: MAAQPPRGIRLSALCPKFLHTNSTSHTWPFSAVAELIDNAYDPDVNAKQIWIDKTVINDHICLTFTDNGNGMTSDKLHKMLSFGFSDKVTMNGHVPVGLYGNGFKSGSMRLGKDAIVFTKNGESMSVGLLSQTYLEVIKAEHVVVPIVAFNKHRQMINLAESKASLAAILEHSLFSTEQKLLAELDAIIGKKGTRIIIWNLRSYKNATEFDFEKDKYDIRIPEDLDEITGKKGYKKQERMDQIAPESDYSLRAYCSILYLKPRMQIILRGQKVKTQLVSKSLAYIERDVYRPKFLSKTVRITFGFNCRNKDHYGIMMYHRNRLIKAYEKVGCQLRANNMGVGVVGIIECNFLKPTHNKQDFDYTNEYRLTITALGEKLNDYWNEMKVKKNTEYPLNLPVEDIQKRPDQTWVQCDACLKWRKLPDGMDQLPEKWYCSNNPDPQFRNCEVPEEPEDEDLVHPTYEKTYKKTNKEKFRIRQPEMIPRINAELLFRPTALSTPSFSSPKESVPRRHLSEGTNSYATRLLNNHQVPPQSEPESNSLKRRLSTRSSILNAKNRRLSSQFENSVYKGDDDDEDVIILEENSTPKPAVDHDIDMKSEQSHVEQGGVQVEFVGDSEPCGQTGSTSTSSSRCDQGNTAATQTEVPSLVVKKEETVEDEIDVRNDAVILPSCVEAEAKIHETQETTDKSADDAGCQLQELRNQLLLVTEEKENYKRQCHMFTDQIKVLQQRILEMNDKYVKKETCHQSTETDAVFLLESINGKSESPDHMVSQYQQALEEIERLKKQCSALQHVKAECSQCSNNESKSEMDEMAVQLDDVFRQLDKCSIERDQYKSEVELLEMEKSQIRSQCEELKTEVEQLKSTNQQTATDVSTSSNIEESVNHMDGESLKLRSLRVNVGQLLAMIVPDLDLQQVNYDVDVVDEILGQVVEQMSEISST
binding (SFB-tagged AUNIP (human) [1]): no binding
